About 65 (0.1%) of roughly 45,000 compounds were called active. Calls come from the whole dose curve; as a rule, active = well fitted activation curve with a large enough effect; inconclusive = small, poorly fitted or top-dose-only effect; inactive = no such curve, though single readings can be large or run the other way. Some of the results follow.
These compounds were tested against Galactocerebrosidase (Homo sapiens) (UniProt P54803) (assay: A Novel Cell-Based Assay to Identify Small Molecules for B -Galactocerebrosidase). Conditions: 145M-Twi-hGALC-G270D cells (Twitcher mouse brain line with human GALC G270D), HMU-beta-Gal fluorescence, 48 h; series mostly up to 57.5 µM; activation: at the top concentration.
Outline: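 Live 145M-Twi cells (Twitcher mouse brain-derived, GALC-null) stably expressing human GALC-G270D, with a wild-type GALC line, were compound-treated. Residual GALC activity was then read as fluorescence from 0.1 mM final HMU-β-gal at pH 5.2; higher signal means activation.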
Note: 0% is about no effect; nearly all actives have a fitted effect of over 65% in size.

UniProt P54803, sequence (P54803 whole entry, looked up): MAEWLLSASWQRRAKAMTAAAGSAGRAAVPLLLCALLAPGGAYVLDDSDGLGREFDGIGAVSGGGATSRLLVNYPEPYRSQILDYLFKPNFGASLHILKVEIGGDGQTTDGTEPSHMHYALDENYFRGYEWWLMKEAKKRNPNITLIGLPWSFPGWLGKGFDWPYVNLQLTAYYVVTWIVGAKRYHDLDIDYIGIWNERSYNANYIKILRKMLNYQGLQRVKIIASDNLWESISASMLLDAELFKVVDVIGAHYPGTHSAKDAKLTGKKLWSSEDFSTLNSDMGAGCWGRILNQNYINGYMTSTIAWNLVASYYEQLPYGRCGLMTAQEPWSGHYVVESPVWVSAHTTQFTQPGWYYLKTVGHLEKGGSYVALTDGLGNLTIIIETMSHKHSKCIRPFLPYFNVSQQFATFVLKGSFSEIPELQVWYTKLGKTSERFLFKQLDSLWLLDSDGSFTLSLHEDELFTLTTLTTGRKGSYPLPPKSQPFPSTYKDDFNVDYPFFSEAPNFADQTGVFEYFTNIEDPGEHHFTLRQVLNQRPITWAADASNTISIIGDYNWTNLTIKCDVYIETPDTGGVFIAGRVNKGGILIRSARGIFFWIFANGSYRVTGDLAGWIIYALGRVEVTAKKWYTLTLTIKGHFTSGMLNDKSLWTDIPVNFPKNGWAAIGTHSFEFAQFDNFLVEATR

activation, inactive:
CCn1cc(C(=O)N2CCN(c3cccc(Cl)c3)CC2)c2cc(OC)c(OC)cc2c1=O -12.7%, Cc1ccc(CN2CCc3nc(Nc4ccc5c(c4)OCCO5)ncc3C2)cc1 -9.28%, CCOc1ccc(CNC(=O)c2cnc3sc(N4CCOCC4)nn3c2=O)cc1 4.6%, CCS(=O)(=O)N1CCc2cc(C(=O)Nc3ccc(C(=O)OC)cc3)ccc21 -11.5%, C#C[C@]1(O)CC[C@H]2[C@@H]3CCc4cc(OC5CCCC5)ccc4[C@H]3CC[C@@]21C -17.2%, CC1=C(c2ccc(C(C)C)cc2)S(=O)(=O)NC1=NCCCN1CCN(c2ccccc2F)CC1 -23.2%, Cc1ccc(C)c(N2CCN(C(=O)CCc3nnc4n(CC(C)C)c(=O)c5ccccc5n34)CC2)c1 -13.9%, CCSc1oc(-c2ccco2)nc1S(=O)(=O)c1ccc(Br)cc1 3.69%, CC(=O)c1ccc(Nc2nc3c(S(=O)(=O)c4ccccc4)nnn3c3ccc(Cl)cc23)cc1 -20.4%, Cc1ccc(NC(=O)Cn2c(=O)c3ccccc3n3nncc23)cc1 -4.67%, Cc1ccc2nc(-c3ccc(O)cc3)c(Nc3ccc(Cl)cc3)n2c1 -16.4%, CCC(=O)N1CCc2cc(S(=O)(=O)NCCC(=O)Nc3cc(C)ccc3OC)ccc21 -17.2%, COc1ccccc1-c1cc2nc(C)c(CCC(=O)O)c(C)n2n1 -11.2%, COc1ccccc1NC(=O)Cn1c(=O)n(CCC(=O)NCC2CCCO2)c(=O)c2cc(OC)c(OC)cc21 (centres undefined) -0.331%, CCCc1cc(=O)[nH]c(SCC(=O)N2CCN(c3ccccc3OC)CC2)n1 -8.68%, COc1cc(NC(=O)c2cc3c(s2)-c2ccccc2OC3)cc(OC)c1OC -31.7%, CCCN(CCC)C(=O)Cn1c(=O)n(-c2ccc(Cl)cc2)c(=O)c2c3c(sc21)CCCCC3 -5.06%, Cc1ccc(-c2nn(-c3ccc(F)cc3)c3c2cnc2cc(F)c(F)cc23)cc1 -8.1%, COC(=O)CCNC(=O)NC(CCC(C)C)c1c(-n2cccc2)sc2c1CCN(C)C2 (centres undefined) -15.6%, CCN1c2ccccc2-c2nc(SCC(=O)NCc3ccccc3)ncc2S1(=O)=O -13.3%, Cc1ccc(NC(=O)Cn2cc(S(=O)(=O)N3CCCC3)c(S(=O)(=O)N3CCCC3)c2)cc1F -7.36%, Cc1ccccc1C(=O)Nc1ccc(OCc2cc(=O)n3ccccc3n2)cc1 -16.6%, CC(=O)c1cccc(Nc2nc(-c3cccc(C)c3)nc3ccccc23)c1 -0.977%, COc1cccc(C(=O)NCC(c2ccc(N(C)C)cc2)N2CCc3ccccc32)c1 (centres undefined) -14.5%, COc1cccc(NC(=O)CCN2CCN(c3ccccc3)CC2)c1 -16.3%, Cc1ccc(C)c(S(=O)(=O)c2nnn3c2nc(Nc2ccc(C)c(C)c2)c2ccccc23)c1 -3.42%, Cc1ccc(CCNC(=O)c2c[nH]c3ccc(S(=O)(=O)Nc4ccc(C)cc4C)cc3c2=O)cc1 -21.6%, Cc1c(Cl)cccc1NC(=O)C(CCS(C)(=O)=O)N1Cc2ccccc2C1=O (centres undefined) -18.3%, Cc1cccc(NC(=O)C(=O)NCCc2sc(-c3ccccc3)nc2C)c1C -15.1%, COc1ccc(-c2cn3c(n2)sc2cc(C(=O)NC4CCCCCC4)ccc23)cc1 -10.6%, CCS(=O)(=O)N1CC(=O)N(c2cc(C)ccc2C)C(C)(C(=O)NC2CCCCC2)C1 (centres undefined) -9.53%, Cc1ccc(Cl)cc1NC(=O)N1CCC2(CC1)Oc1ccccc1C(=O)N2Cc1ccccc1F -3.88%, COc1ccc(-n2nnc(-c3nsc(NC(=O)c4cccs4)n3)c2C)cc1OC -19.9%, CC1CCCN(c2c(S(=O)(=O)c3ccccc3)cnc3ccc(Cl)cc23)C1 (centres undefined) -0.0262%, CC(CNC(=O)c1cc(-c2ccccc2)n[nH]1)c1ccccc1 (centres undefined) -13.1%, Cc1ccc(S(=O)(=O)c2c(Nc3cc(C)ccc3C)sc(C(=O)c3ccc4c(c3)OCO4)c2N)cc1 -28.7%, CC(=O)c1c(C)oc2ccc(N(C(=O)Oc3ccccc3)S(=O)(=O)c3ccccc3)cc12 -23.6%, CCc1ccc(NC(=O)C(NS(=O)(=O)c2cccc3nsnc23)c2ccccc2)cc1 (centres undefined) -17.7%, O=C(OCC1(COC(=O)c2cccnc2)CCCC(COC(=O)c2cccnc2)(COC(=O)c2cccnc2)C1O)c1cccnc1 -8.21%, COc1ccc(C)cc1NC(=O)c1cc(S(=O)(=O)N2CCC(C)CC2)cn1C -9.49%, Cc1cccc(N2CCN(C(=O)c3c(C)oc4ncnc(N5CCOCC5)c34)CC2)c1C -9.71%, Nc1cc(=O)nc(SCC(=O)Nc2ccc(F)cc2)n1-c1cccc(Cl)c1 -16.6%, Cc1nn(C(=O)COc2ccccc2Br)c(C)c1Sc1ccccc1 -17.2%, COc1ccc(CCN2C(=O)N(c3ccc(C)cc3)C(=O)C2CC(=O)Nc2ccc(F)cc2)cc1 (centres undefined) -16.5%, Cn1c(=O)c2[nH]cnc2n(C)c1=O -8.15%, COc1cccc(NC(=O)c2sc3nc(C)c(C(=O)Nc4ccc(Cl)cc4)c(-c4ccc(Br)cc4)c3c2N)c1 -14%, O=C(CSc1n[nH]c(-c2ccccc2)n1)N1CCN(c2ccccc2F)CC1 5.06%, CCc1ccc(NC(=O)C2CCC(CNS(=O)(=O)c3ccc4c(c3)C(C)(C)C(=O)N4C)CC2)cc1 (centres undefined) -11%, COc1ccc2c(CNCc3ccccc3OC)c(C(=O)O)n(Cc3ccc(F)cc3Cl)c2c1 -15.4%, Cc1cccc(NC(=O)c2sc3nc(-c4ccccc4)cn3c2C)c1C 7%, CCOc1ccc(C(=O)N(Cc2cc(OC)c(OC)c(OC)c2)c2ccccn2)cc1 -39.2%, OCc1cnc(SCc2ccc(F)cc2)n1Cc1ccc(F)cc1 -16.1%, COc1ccc2c(Sc3ccc(C)cc3)c(C(=O)NCCc3ccccc3)[nH]c2c1 -17.1%, Cc1cc(OCCCn2c(CCNC(=O)C3CCCCC3)nc3ccccc32)ccc1Cl -20.6%, COc1ccc(N(CC(=O)Nc2cccc(C(C)=O)c2)S(=O)(=O)c2ccccc2)c(OC)c1 -11.3%, CCOC(=O)C1=C(C)NC(=O)NC1c1cn(-c2ccccc2)nc1-c1ccc(OC(C)C)cc1 (centres undefined) -11.1%, Cc1nn(C)c2c1c(C(F)(F)F)cc(=O)n2C(C)C(=O)NCCc1ccccc1 (centres undefined) -5.3%, O=C(Nc1nc2n(n1)C(c1ccc(Cl)cc1)C=C(c1ccccc1)N2)c1ccco1 (centres undefined) -8.34%, CCc1nn(CC(=O)NCCCN2CCN(CC)CC2)c(=O)c2cc3occc3n12 -5.89%, CCOc1ccc(S(=O)(=O)c2cn(Cc3ccccc3C)c3ccc(OC)cc3c2=O)cc1 -17.5%, CCCOc1ccc(-c2nonc2NC(=O)c2oc3ccc(Cl)cc3c2C)cc1OCCC -11.3%, COc1ccccc1N(CC(=O)Nc1ccc2c(c1)OCO2)S(=O)(=O)c1ccc(C)cc1 7.8%, O=C(c1ccc(F)cc1)N1CCC(c2nc(-c3ccc(S(=O)(=O)N4CCCC4)cc3)no2)CC1 -12.4%, O=C(Cn1cnc2onc(-c3ccc(F)cc3)c2c1=O)Nc1ccc(F)c(Cl)c1 -22.6%, O=C(CN1c2ccccc2S(=O)(=O)c2ccccc21)Nc1ccccc1Cl -35.1%, COc1ccc(OC)c(NC(=O)CSc2ncc3c(n2)-c2ccccc2N(C)S3(=O)=O)c1 -12.6%, O=C(C1COc2ccccc2O1)N(Cc1cccnc1)c1nc2c(Cl)cccc2s1 (centres undefined) -13.1%, NC(=O)Cn1c(=O)n(CCCCCC(=O)NCc2ccc(F)cc2)c(=O)c2sccc21 -0.584%, CCCNC(=O)c1ccc(-c2nc(CS(=O)(=O)c3ccc(C)cc3)c(C)o2)cc1 -7.44%, CCOC(=O)N1CCN(Cc2nc3cc(NC(=O)C(C)C)ccc3n2C(C)C)CC1 7.01%, O=C(c1ccc2c(c1)N(Cc1c(F)cccc1Cl)C(=O)c1ccccc1S2)N1CCOCC1 -1.07%, CCc1cccc(NC(=O)C2Cc3ccccc3N2C(=O)c2ccccc2)c1 (centres undefined) 3.72%, CCOc1cccc(C2c3[nH]c4ccccc4c3CCN2C(=O)CSCc2ccc(F)cc2)c1 (centres undefined) -1.33%, Cc1ccc2nc(COc3ccccc3NC(=O)c3ccccc3F)cc(=O)n2c1 -6.49%, Cc1ccc2c(c1)c(CC(=O)Nc1ccc(C)c(F)c1)c(C(=O)O)n2C -13.5%, CC1=C(C(=O)Nc2cccnc2)C(c2ccccc2)n2nc(SCc3ccccc3Cl)nc2N1 (centres undefined) -11.7%, COc1ccc(C)cc1NC(=O)C1CCN(S(=O)(=O)c2ccc3c(c2)CCCN3C(C)=O)CC1 -15.5%, O=C(Nc1ccc(N2CCN(c3ccc(F)cc3)CC2)c(C(=O)O)c1)c1ccccc1F -6.58%, CCCCOc1ccc(Cn2c(=O)oc3ccc(C)cc32)cc1 -15.4%, Cc1ccc(CCNC(=O)Cn2ncc3c([nH]c4ccc(C)cc43)c2=O)cc1 -7.59%, CCc1ccc(NC(=O)CN2C(=O)C(c3ccc(F)cc3)=NC2(C)C)cc1 0.779%, CCOC(=O)c1ccc(NC(=O)CSc2nc3ccccc3c(=O)n2CCNC(C)=O)cc1 -8.7%, O=C(CS(=O)(=O)c1cccc2nsnc12)Nc1ccc(F)cc1 -9.31%, Cc1cccc(-c2nnn3c2nc(NCCc2ccc(S(N)(=O)=O)cc2)c2ccccc23)c1 4.04%, CCCN(CCC)CCNC(=O)Cn1cc2c(n1)-c1c(oc(C(=O)N3CCCC3)c1C)CC2 -19.8%, COc1ccc(OC)c(NC(=O)CSc2cn(CC(=O)N3CCCCCC3)c3ccccc23)c1 -8.66%, Cc1ccc(NC(=O)CSc2nc3ccccc3nc2Cc2ccccc2)c(C)c1 -10.2%, Cc1cccc(NC(=O)c2cc(-c3ccc4c(c3)OCCO4)on2)c1 -14.5%, Cc1cc(NCc2ccccc2Cl)n2cnnc2n1 -11.9%, CCOc1ccc(Cn2c(-c3ccc(OCC)c(OC)c3)nc3ccccc32)cc1OC -16.5%, COc1ccc(S(=O)(=O)Nc2nnc(CC(C)C)s2)cc1 -4.14%, COC(=O)c1cc(S(=O)(=O)NCC2CCN(Cc3ccc(F)cc3)CC2)c[nH]1 -4.61%, COCCNC(=O)CSc1nc2cc3c(cc2c(=O)n1CCCC(=O)NCc1ccc(OC)cc1)OCO3 0.376%

Potency, inactive:
Cc1[nH]c(=O)c(C#N)cc1-c1ccncc1

Source: PubChem BioAssay AID1159614 (National Center for Advancing Translational Sciences (NCATS), 2016)
